Assay results taken from the supplement of paper PMC8291772.
± gives the standard error. The list shows a part of the results.

Each sequence was assayed against terminal deoxynucleotidyl transferase (calf thymus) (UniProt P06526) (assay: TdT poly-dT extension signal (Cy3 hybridisation fluorescence, uncapped minus capped) (fluorescence a.u.); higher = more efficient initiation of TdT extension). Details: initiator chemistry: 2'-O-methyl-RNA, free 3'-OH (5'-tethered via HEG linker).
Procedure: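 All mono- to pentamer 2'-O-methyl-RNA initiators were made by photolithographic in situ synthesis (3'-NPPOC amidites, reverse direction, free 3'-OH) on glass on a hexaethylene glycol linker. Each was made in uncapped and DMTr-dT-capped versions, about 11 replicates each. Arrays were extended with calf thymus TdT (0.2 U/uL), 100 uM dTTP and 0.25 mM CoCl2 for 120 min at 37 C, hybridised with an rA18-Cy3 probe and scanned at 532 nm. The value is the mean uncapped minus the mean capped signal. IDs are written 3'->5' and are reversed to 5'->3'; all nucleotides are 2'-OMe.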

UniProt P06526, sequence (P06526 whole entry): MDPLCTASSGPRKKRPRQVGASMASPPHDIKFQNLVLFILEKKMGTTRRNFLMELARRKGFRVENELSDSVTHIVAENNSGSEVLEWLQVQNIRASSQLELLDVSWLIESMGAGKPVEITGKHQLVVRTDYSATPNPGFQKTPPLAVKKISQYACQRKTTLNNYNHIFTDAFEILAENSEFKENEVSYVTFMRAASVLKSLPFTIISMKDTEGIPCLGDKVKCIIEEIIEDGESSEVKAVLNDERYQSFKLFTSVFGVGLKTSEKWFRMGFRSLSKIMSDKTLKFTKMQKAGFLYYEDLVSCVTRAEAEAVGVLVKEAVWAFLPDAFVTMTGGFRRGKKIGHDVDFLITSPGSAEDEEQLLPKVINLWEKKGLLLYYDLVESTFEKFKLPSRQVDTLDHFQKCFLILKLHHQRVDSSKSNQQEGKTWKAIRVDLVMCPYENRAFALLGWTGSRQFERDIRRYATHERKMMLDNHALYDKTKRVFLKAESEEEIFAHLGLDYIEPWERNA

| Sequence | TdT poly-dT extension signal |
| --- | --- |
| UGUUU | 193 ± 14 |
| UUUAA | 472 ± 39 |
| GAGUC | 564 ± 43 |
| CUACU | 259 ± 24 |
| UCACU | 353 ± 44 |
| CUACG | 220 ± 22 |
| CGGA | 599 ± 30 |
| GAGCU | 459 ± 69 |
| CCGAG | 550 ± 53 |
| AAGC | 1020 ± 75 |
| GGACC | 526 ± 56 |
| ACUC | 497 ± 55 |
| CCGGU | 424 ± 52 |
| UUCUG | 203 ± 12 |
| ACGG | 375 ± 17 |
| CCUUC | 341 ± 33 |
| CGUGA | 389 ± 45 |
| CACGU | 388 ± 16 |
| UUGGA | 385 ± 46 |
| CGACC | 476 ± 32 |
| CGAAG | 535 ± 52 |
| CUUGC | 1070 ± 49 |
| UCCGG | 282 ± 20 |
| GAAC | 734 ± 42 |

| Sequence | TdT poly-dT extension signal |
| --- | --- |
| GUAGC | 874 ± 90 |
| GACGG | 319 ± 29 |
| GACGA | 600 ± 69 |
| AUGAU | 308 ± 22 |
| GGUGG | 322 ± 32 |
| CGCG | 333 ± 16 |
| UAGA | 749 ± 76 |
| UAAG | 401 ± 44 |
| AGUCA | 380 ± 51 |
| CACCU | 335 ± 26 |
| UUGAU | 338 ± 24 |
| GGCC | 494 ± 40 |
| GGUG | 210 ± 18 |
| GCUGA | 489 ± 37 |
| CGGGA | 762 ± 120 |
| GUUGU | 356 ± 39 |
| UCCAU | 530 ± 40 |
| UGCAC | 803 ± 100 |
| GGGC | 1320 ± 130 |
| UGAUU | 284 ± 20 |
| AGCUU | 340 ± 23 |
| GCAUU | 349 ± 28 |
| GAAAA | 1340 ± 160 |
| UAUCU | 237 ± 9.4 |

| Sequence | TdT poly-dT extension signal |
| --- | --- |
| GGAUA | 441 ± 22 |
| UCAGA | 821 ± 37 |
| ACUAG | 369 ± 32 |
| UAACU | 308 ± 19 |
| AGACU | 327 ± 17 |
| CUUUU | 188 ± 10 |
| UCUCG | 247 ± 23 |
| GUCCG | 216 ± 15 |
| GGUGC | 1450 ± 72 |
| AGGAG | 436 ± 25 |
| UGGGC | 1020 ± 64 |
| CUGGA | 571 ± 53 |
| GCGAC | 660 ± 38 |
| AUUGC | 975 ± 53 |
| UGUUG | 98.8 ± 15 |
| ACUAU | 368 ± 48 |
| AUCUC | 438 ± 30 |
| CCGUG | 247 ± 13 |
| AUAUG | 172 ± 15 |
| GGCGU | 492 ± 54 |
| CUUCU | 228 ± 14 |
| AGGGU | 440 ± 31 |
| GGAGU | 517 ± 31 |
| GCGGG | 285 ± 16 |

| Sequence | TdT poly-dT extension signal |
| --- | --- |
| AUAGU | 410 ± 26 |
| UUACA | 292 ± 35 |
| CCCUU | 351 ± 26 |
| GGCCG | 218 ± 17 |
| AAUU | 299 ± 19 |
| AAGUU | 326 ± 30 |
| CGGCA | 308 ± 14 |
| UCUAU | 351 ± 55 |
| CGACU | 361 ± 55 |
| GAGUG | 253 ± 36 |
| CCUCU | 222 ± 19 |
| UUGU | 284 ± 14 |
| CGGCG | 295 ± 16 |
| CUCUC | 542 ± 36 |
| CGGG | 309 ± 20 |
| UAUCG | 210 ± 23 |
| UAAUU | 334 ± 24 |
| GUAG | 390 ± 58 |
| GAUCC | 473 ± 23 |
| AGGU | 429 ± 28 |
| UACCA | 407 ± 46 |
| CCUAA | 722 ± 48 |
| UUUCU | 226 ± 34 |
| ACCUC | 492 ± 33 |

| Sequence | TdT poly-dT extension signal |
| --- | --- |
| AGGA | 553 ± 43 |
| UCACC | 396 ± 31 |
| AACCA | 421 ± 35 |
| UCAUU | 329 ± 26 |
| GGUCA | 350 ± 38 |
| CUCAC | 655 ± 34 |
| UCUU | 320 ± 16 |
| CGCUG | 264 ± 25 |
| AGAU | 437 ± 58 |
| AACA | 387 ± 36 |
| GCCUG | 255 ± 13 |
| AAAUA | 608 ± 42 |
| AAUAA | 788 ± 62 |
| CGCAG | 506 ± 44 |
| GCUA | 576 ± 29 |
| GCUUC | 403 ± 23 |
| ACUAA | 675 ± 43 |
| AUAU | 271 ± 21 |
| AACCU | 353 ± 24 |
| GCUG | 237 ± 21 |
| CCGGC | 929 ± 50 |
| AUGAG | 369 ± 35 |
| UCUG | 199 ± 16 |
| GCAUG | 279 ± 20 |

| Sequence | TdT poly-dT extension signal |
| --- | --- |
| UCAUA | 657 ± 58 |
| ACGCC | 647 ± 68 |
| GUGGA | 530 ± 40 |
| UGCU | 380 ± 54 |
| CUCU | 284 ± 19 |
| AAAUU | 324 ± 30 |
| AAAAG | 572 ± 40 |
| GACU | 307 ± 20 |
| GCCAC | 704 ± 100 |
| AUGCG | 228 ± 24 |
| CUCCU | 368 ± 24 |
| UUAGC | 1120 ± 85 |
| ACGUU | 296 ± 22 |
| UUUCC | 311 ± 18 |
| GGGGG | 472 ± 39 |
| UUACU | 207 ± 24 |
| AUGAC | 596 ± 49 |
| UGUUC | 338 ± 23 |
| UCAGU | 529 ± 32 |
| UAGUC | 536 ± 22 |
| CAAGG | 388 ± 18 |
| UCGAC | 720 ± 77 |
| AUAC | 414 ± 24 |
| AAAC | 622 ± 50 |

| Sequence | TdT poly-dT extension signal |
| --- | --- |
| UACUG | 262 ± 20 |
| AGAUG | 206 ± 39 |
| UUUGA | 308 ± 24 |
| AGUCU | 332 ± 42 |
| ACAG | 580 ± 55 |
| UUACG | 190 ± 16 |
| CACCG | 313 ± 30 |
| GUGCG | 273 ± 17 |
| UAUUG | 134 ± 22 |
| AUACG | 244 ± 16 |
| AUAAA | 898 ± 66 |
| UCUGC | 954 ± 69 |
| CUCCC | 434 ± 28 |
| UCCGU | 482 ± 36 |
| AACUG | 319 ± 43 |
| CCAUA | 666 ± 42 |
| UGCAG | 452 ± 32 |
| GCCA | 256 ± 36 |
| CCGUC | 563 ± 68 |
| GCGG | 394 ± 28 |
| AUUU | 178 ± 16 |
| UGACU | 251 ± 16 |
| GGCAC | 881 ± 64 |
| UCAAA | 1120 ± 90 |

| Sequence | TdT poly-dT extension signal |
| --- | --- |
| CAGCC | 768 ± 69 |
| AUGCA | 396 ± 33 |
| UGGGG | 363 ± 14 |
| CGAA | 788 ± 63 |
| AACGU | 394 ± 33 |
| GAACU | 287 ± 24 |
| UAUCA | 299 ± 20 |
| GCAAU | 567 ± 29 |
| GCCGG | 264 ± 21 |
| CCUCA | 370 ± 25 |
| CCGA | 620 ± 55 |
| AAUCG | 207 ± 16 |
| CUUG | 189 ± 21 |
| CCGAU | 556 ± 57 |
| UCGU | 489 ± 51 |
| GAUG | 206 ± 16 |
| GCGCA | 351 ± 19 |
| CAUAA | 765 ± 72 |
| AGCCG | 260 ± 29 |
| AGCGU | 476 ± 20 |
| CACUC | 527 ± 54 |
| GUACA | 331 ± 37 |
| GGAU | 436 ± 25 |
| GCCAG | 491 ± 83 |

| Sequence | TdT poly-dT extension signal |
| --- | --- |
| GCUGG | 253 ± 27 |
| CAGA | 689 ± 73 |
| CAAUA | 708 ± 37 |
| GUCAA | 824 ± 73 |
| GGGCU | 356 ± 31 |
| UCCUA | 556 ± 67 |
| AACUC | 504 ± 22 |
| AUCGG | 267 ± 23 |
| UAAGA | 819 ± 37 |
| CCCGA | 600 ± 30 |
| UUAC | 418 ± 28 |
| CCCCG | 227 ± 18 |
| UACUA | 554 ± 29 |
| CCGUA | 545 ± 40 |
| UGCGU | 417 ± 45 |
| CUAG | 343 ± 28 |
| UGUU | 250 ± 21 |
| CCACU | 262 ± 20 |
| UUAAA | 1000 ± 81 |
| GGGAA | 734 ± 40 |
| AGUUG | 160 ± 18 |
| UUGUU | 230 ± 10 |
| CGAGU | 433 ± 32 |
